Measured values: PubChem BioAssay AID624417 (National Center for Advancing Translational Sciences (NCATS), 2012)
Screen size: about 410,000 compounds; about 6,400 (1.6%) were called active. Inconclusive means that the source gave no clear call. Such entries were picked first, then a sample of the others. Calls follow the shape of the dose curve; as a rule, active = well fitted inhibition curve with a large enough effect; inconclusive = small, poorly fitted or top-dose-only effect; inactive = no such curve, though single readings can be large or run the other way. Potencies of inconclusive entries are left out as doubtful fits.

Target: Glucagon-like peptide 1 receptor (Homo sapiens) (UniProt P43220)
Test: qHTS of GLP-1 Receptor Inverse Agonists (Inhibition Mode); also: nearly all actives have a fitted effect of over 55% in size
Conditions: HEK293 GLP-1R CRE-luciferase, luminescence, 24 h, GLP-1R form is constitutively active; activity change, negative = inhibition: at 38.3 µM (top of the series) unless noted
Summary of the method: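 Luminescence readout: a drop in cAMP-driven luciferase signal flags inverse agonism at a constitutively active GLP-1R stably expressed in HEK293. Compound exposure lasted 24 hr at 37 deg C, 5% CO2.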
% is scaled to controls: 0 for no effect and ±100 for the full control effect; potency is read from the fitted curve at half-maximal effect; tags tell the direction and shape of the fitted curve.

UniProt P43220, sequence (P43220 whole entry, looked up): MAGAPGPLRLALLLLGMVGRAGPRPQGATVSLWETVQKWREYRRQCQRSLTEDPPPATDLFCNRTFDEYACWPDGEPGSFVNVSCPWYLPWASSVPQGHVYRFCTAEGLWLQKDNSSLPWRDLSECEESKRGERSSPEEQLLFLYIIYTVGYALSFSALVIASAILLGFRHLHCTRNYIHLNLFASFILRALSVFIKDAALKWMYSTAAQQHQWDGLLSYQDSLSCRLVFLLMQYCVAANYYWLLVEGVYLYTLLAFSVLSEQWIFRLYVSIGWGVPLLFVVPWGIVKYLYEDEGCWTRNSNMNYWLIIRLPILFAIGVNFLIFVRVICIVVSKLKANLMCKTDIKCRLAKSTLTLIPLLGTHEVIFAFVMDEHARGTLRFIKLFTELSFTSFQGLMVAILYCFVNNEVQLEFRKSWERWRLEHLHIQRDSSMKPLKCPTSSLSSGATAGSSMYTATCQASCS

SMILES	Potency	activity change, negative = inhibition
COc1ccc(N2CCN(C(=O)Cc3coc4ccc(C)cc34)CC2)cc1	inconclusive [inhibitor, partial curve, poor fit]	–
CCc1ccc(CNC(=O)c2ccc(CSc3nc4ccncc4n3Cc3ccc(OC)cc3)cc2)cc1	inconclusive [inhibitor, single point]	–
O=S(=O)(Nc1cccc(Cl)c1)c1ccc2[nH]c3c(c2c1)CCCCCC3	inconclusive [inhibitor, partial curve, poor fit]	–
CCOc1ccc(-n2c(SCC(=O)Nc3ccc4c(c3)OCO4)nc3ccccc3c2=O)cc1	inconclusive [inhibitor, partial curve, poor fit]	–
CC1(C(=O)N/N=C/c2ccccc2)CC1(Br)Br (configuration not stated)	inconclusive [inhibitor, partial curve, poor fit]	–
Cc1c(NC(=O)/C(C#N)=C/c2ccc(-c3ccc(Cl)cc3)o2)c(=O)n(-c2ccccc2)n1C	inconclusive [inhibitor, partial curve, poor fit]	–
S=C(NCc1ccccn1)Nc1ccc(Cl)cc1Cl	–	inactive: -22.4%
COc1ccc(/C=C/c2nc3ccccc3n2C)cc1	inconclusive [inhibitor, full curve, poor fit]	–
O=C(NCCCn1ccnc1)Nc1cccc2ccccc12	–	inactive: 3.87%
Fc1ccc(CO/N=C/C2=C(Cl)c3ccccc3CC2)cc1	inconclusive [inhibitor, single point]	–
Cc1cc(-c2ccc(C)c(S(=O)(=O)N3CCCC(C)C3)c2)on1 (configuration not stated)	inconclusive [inhibitor, single point]	–
CCOC(=O)CCc1c(C)nc(SCCN2CCCC2)c(C#N)c1C	inconclusive [inhibitor, partial curve, poor fit]	–
CN(Cc1cccc(F)c1)C(=O)c1ccccc1Sc1ccccc1C#N	inconclusive [inhibitor, partial curve, poor fit]	–
CCc1ccc(C(=O)CCC(=O)Nc2ccc(OC)c(S(=O)(=O)N3CCCCC3)c2)cc1	inconclusive [inhibitor, single point]	–
N#Cc1ccccc1Cn1c(=O)n(C2CCCC2)c(=O)c2ccccc21	inconclusive [inhibitor, single point]	–
O=[N+]([O-])c1ccc(CN2CCN(Cc3c[nH]c4ccccc34)CC2)cc1	inconclusive [inhibitor, partial curve, poor fit]	–
O=C(COc1ccccc1Cl)Nc1nc2c(s1)CCCC2	inconclusive [inhibitor, single point]	–
COc1cccc(NC(=O)N(C)C[C@H]2Oc3cc(C#Cc4ccncc4)ccc3S(=O)(=O)N([C@H](C)CO)C[C@H]2C)c1	inconclusive [inhibitor, single point]	–
CCN1C(=O)[C@H]2[C@@H](c3ccc(C(F)(F)F)cc3)N[C@]3(CCCN(Cc4ccc(Br)cc4)C3=O)[C@H]2C1=O	active: 12.6 µM	–
COc1ccc(CNC(=O)C[C@H]2C[C@H](C(=O)N3CCOCC3)[C@@]3(CCC4CCCC4)c4[nH]c5ccc(Cl)cc5c4CCN3C2=O)cc1OC	inconclusive [inhibitor, partial curve, poor fit]	–
CCN(CC)S(=O)(=O)c1ccc(OC)c(NC(=O)OCc2ccccc2)c1	inconclusive [inhibitor, single point]	–

SMILES	Potency	activity change, negative = inhibition
Cc1ccc(CC2(OCCN(C)C)CCC(C(C)(C)C)CC2)cc1 (configuration not stated)	inconclusive [inhibitor, partial curve, poor fit]	–
O=C(O)Cn1cnc2c(oc3ccccc32)c1=O	–	inactive: 9.46%
O=[N+]([O-])c1cccc(-c2nnc(-c3ccc4c(c3)OCO4)o2)c1	–	inactive: 61.6%
O=C(CSc1nnc(SCc2ccc(Cl)cc2)s1)N/N=C/c1c[nH]c2ccccc12	inconclusive [inhibitor, partial curve, poor fit]	–
CC(C)N(C(=O)[C@H]1C[C@H](CC(=O)NCCCN(C)C)C(=O)N2CCc3c([nH]c4ccc(Cl)cc34)[C@]12C)C(C)C	inconclusive [inhibitor, single point]	–
CCOc1ccc2nc(SCC(=O)N3c4ccccc4Sc4ccccc43)sc2c1	–	inactive: 13.7%
O=C(CSc1nc2ccc(Nc3nc(N4CCOCC4)nc(N4CCOCC4)n3)cc2s1)NCc1ccco1	inconclusive [inhibitor, single point]	–
Nc1nc(-c2ccccc2)nc(-c2ccccc2O)n1	inconclusive [inhibitor, single point]	–
CC(C)c1ccc(S(=O)(=O)N2CCN(C(=S)NCc3ccco3)CC2)cc1	inconclusive [inhibitor, single point]	–
CN1OC[C@@H]2CN(Cc3ccccc3)[C@H](c3cccc(-c4ccccc4)c3)C[C@@H]21	inconclusive [inhibitor, single point]	–
Cc1cc(OCC(O)CN2CCc3ccccc3C2)ccc1Cl (configuration not stated)	active: 7.08 µM	–
Clc1ccc(Nc2ccc(NCc3ccccc3)nn2)cc1	inconclusive [inhibitor, single point]	–
Cc1cc(NC(=O)C23CCC(C)(C(=O)O2)C3(C)C)no1 (configuration not stated)	–	inactive: 0.669%
O=C(c1ccc([N+](=O)[O-])cc1)N(Cc1ccccc1)c1ccccn1	–	inactive: -17.1%
CC(C)(C)n1ncc2c(=O)n(Cc3cccc(Cl)c3)cnc21	inconclusive [inhibitor, single point]	–
CCN(CC(=O)NCc1ccc(Cl)cc1)C(=O)c1oc2ccccc2c1C	inconclusive [inhibitor, partial curve, poor fit]	–
Cc1cccc(N2CCN(C(=O)c3ccc4c(c3)N(Cc3ccccc3F)C(=O)c3ccccc3S4=O)CC2C)c1 (configuration not stated)	inconclusive [inhibitor, single point]	–
Cc1ccc(CC(=O)N2CCN(c3ccc([N+](=O)[O-])cc3)CC2)cc1	inconclusive [inhibitor, single point]	–
CCCCC(=O)NC(c1ccccc1)c1ccc2cccnc2c1O (configuration not stated)	inconclusive [inhibitor, partial curve, poor fit]	–
Cc1cc(C)c2nc(NC(=O)c3ccc(S(=O)(=O)N4CCCC4)cc3)sc2c1	–	inactive: -0.848%
CC1CCC(NC(=O)CN2C(=O)c3cccnc3Oc3ccc(Cl)cc32)CC1 (configuration not stated)	inconclusive [inhibitor, partial curve]	–

SMILES	Potency	activity change, negative = inhibition
Cn1c(=O)c2cc(NC(=O)CCc3ccc4c(c3)OCO4)ccc2n1Cc1ccc(F)cc1	inconclusive [inhibitor, partial curve, poor fit]	–
Cc1ccc(NC(=S)NCc2ccc(S(N)(=O)=O)cc2)cc1Cl	inconclusive [inhibitor, single point]	–
C=CCn1c(-c2cccs2)nc2ccccc21	inconclusive [inhibitor, single point]	–
Cc1c(CC(=O)NCc2ccccc2)c(=O)oc2c(C)c(O)ccc12	inconclusive [inhibitor, single point]	–
CCOC(=O)C1=C(O)c2ccccc2C(=O)/C1=C\c1ccc(C)cc1	–	inactive: -29.6%
CSCc1cc(N(C)C)nc(SCc2ccc(Cl)cc2Cl)n1	inconclusive [inhibitor, single point]	–
CCCCC(CC)CNC(=O)CCCc1nnc2n(CCC)c(=O)c3sccc3n12 (configuration not stated)	inconclusive [inhibitor, single point]	–
Cc1nn(-c2ccccc2)c(N2CCCC2)c1/C=N/NC(=S)Nc1ccc(F)cc1	inconclusive [inhibitor, partial curve, poor fit]	–
Clc1ccc(-c2csc(=Nc3ccccc3)n2Cc2ccc3c(c2)OCO3)cc1	inconclusive [inhibitor, partial curve]	–
CCCCCNc1nc2sc3c(c2c(=O)n1-c1cccc(Cl)c1)CCN(C)C3	inconclusive [inhibitor, single point]	–
CCCCNC(=O)c1ccc(NS(=O)(=O)c2ccccc2)cc1	–	inactive: 0%
O=C(c1cc2ccccc2oc1=O)N1CCCCCCC1	–	inactive: -6.92%
Cc1cccc(OCc2nc(C#N)c(NCc3ccccc3Cl)o2)c1	inconclusive [inhibitor, single point]	–
N#Cc1c(NCCO)nc(NCc2ccccc2)c2c1CCN(Cc1ccccc1)C2	inconclusive [inhibitor, single point]	–
CC1Cc2ccccc2N1C(=O)COC(=O)/C=C/c1cccc(F)c1 (configuration not stated)	inconclusive [inhibitor, partial curve, poor fit]	–
Cc1cc(C)c2c(c1)-c1c(ssc1=S)C(C)(C)N2C(=O)CSc1nncn1C	inconclusive [inhibitor, single point]	–
Cc1cccc(C(=O)NNC(=O)c2ccccc2O)c1	inconclusive [inhibitor, single point]	–
COc1ccc(C(=O)NC(=S)NNC(=O)CCc2ccccc2)cc1	inconclusive [inhibitor, single point]	–
COc1cccc(C(=O)NC(C)c2ccc(Br)cc2)c1 (configuration not stated)	inconclusive [inhibitor, partial curve, poor fit]	–
Cc1cc(NC(=O)Nc2cccc(Cl)c2)n(-c2ccccn2)n1	inconclusive [inhibitor, single point]	–
